This passage reports enrichment ratio results from a collection of fitness landscapes (doi:10.1126/science.1257360).

The labels stand for the following.
B1: PhoQ; a variant is named by its letters at X, in order, P23837 (parent)
chain: MKKLLRLFFPLSLRVRFLLATAAVVLVLSLAYGMVALIGYSVSFDKTTFRLLRGESNLFYTLAKWENNKLHVELPENIDKQSPTMTLIYDENGQLLWAQRDVPWLMKMIQPDWLKSNGFHEIEADVNDTSLLLSGDHSIQQQLQEVREDDDDAEMTHSVAVNVYPATSRMPKLTIVVVDTIPVELKSSYMVWSWFIYVLSANLLLVIPLLWVAAWWSLRPIEALAKEVRELEEHNRELLNPATTRELTSLVRNLNRLLKSERERYDKYRTTLTDLTHSLKTPLXXLQXXLRSLRSEKMSVSDAEPVMLEQISRISQQIGYYLHRASMRGGTLLSRELHPVAPLLDNLTSALNKVYQRKGVNISLDISPEISFVGEQNDFVEVMGNVLDNACKYCLEFVEISARQTDEHLYIVVEDDGPGIPLSKREVIFDRGQRVDTLRPGQGVGLAVAREITEQYEGKIVAGESMLGGARMEVIFGRQHSAPKDE

This is one part of the list.

This experiment covers variants of B1. Briefly: enrichment ratio after two sorts for PhoP signalling (ratio (wild type AVST 3.29)); higher = more functional. To be noted: with PhoP (E. coli).
Consider WKTE, for which the enrichment ratio was no more than 0.25.

With WEWV, the enrichment ratio was no more than 0.25.

As to KAED, the enrichment ratio is no more than 0.25.

For the variant GLWW, the enrichment ratio is no more than 0.25.

On to NYDD, for which the enrichment ratio was no more than 0.25.

For NDAR, the enrichment ratio is no more than 0.25.

As to YNFK, the enrichment ratio was no more than 0.25.

Consider TTNQ, for which the enrichment ratio is 2.31.

In the case of MQHC, the enrichment ratio was no more than 0.25.

For the variant LPKL, the enrichment ratio was no more than 0.25.

KCFV: the enrichment ratio was no more than 0.25.

With GQDC, the enrichment ratio is no more than 0.25.

For the variant MGKR, the enrichment ratio is no more than 0.25.

On to GAFG, for which the enrichment ratio is no more than 0.25.

Consider STTQ, for which the enrichment ratio turned out to be 6.67.

As to MVDH, the enrichment ratio was no more than 0.25.

As for PECS, the enrichment ratio was no more than 0.25.

LSSI: the enrichment ratio is no more than 0.25.

Consider AFVR, for which the enrichment ratio was no more than 0.25.

With AWVG, the enrichment ratio is no more than 0.25.

VTPD: the enrichment ratio is no more than 0.25.

As for VSEQ, the enrichment ratio is no more than 0.25.

TQMP: the enrichment ratio is no more than 0.25.

With NKKV, the enrichment ratio was no more than 0.25.

In the case of PEYY, the enrichment ratio is no more than 0.25.

On to AETT, for which the enrichment ratio is 3.23.

For the variant RVSI, the enrichment ratio was no more than 0.25.

For YSDC, the enrichment ratio was no more than 0.25.

Turning to DELC, the enrichment ratio was no more than 0.25.

In the case of QSAL, the enrichment ratio stood at 6.48.

As for QEKV, the enrichment ratio was no more than 0.25.

Consider LPNW, for which the enrichment ratio was 0.366.

As for QDKW, the enrichment ratio is no more than 0.25.

On to MSNI, for which the enrichment ratio was no more than 0.25.

Turning to TCQP, the enrichment ratio is no more than 0.25.

On to REYG, for which the enrichment ratio is no more than 0.25.

As to RAFA, the enrichment ratio was no more than 0.25.

Take LTKY: the enrichment ratio is no more than 0.25.

Consider IPID, for which the enrichment ratio is no more than 0.25.

On to THPR, for which the enrichment ratio is no more than 0.25.

For the variant MYER, the enrichment ratio is no more than 0.25.

Consider RHLV, for which the enrichment ratio was no more than 0.25.

Turning to EVHM, the enrichment ratio is no more than 0.25.

As to TSED, the enrichment ratio is no more than 0.25.

On to MIHH, for which the enrichment ratio was determined as 5.99.

LYMK: the enrichment ratio was no more than 0.25.

With PYWS, the enrichment ratio is no more than 0.25.

For YNRF, the enrichment ratio is no more than 0.25.

For SCLR, the enrichment ratio came out at 8.5.

For the variant YPYQ, the enrichment ratio is no more than 0.25.

On to LHYL, for which the enrichment ratio is no more than 0.25.

For DMYW, the enrichment ratio was no more than 0.25.

Regarding SKYC, the enrichment ratio is no more than 0.25.

As to LMAG, the enrichment ratio was no more than 0.25.

In the case of RVQR, the enrichment ratio is no more than 0.25.

As to DWPL, the enrichment ratio is no more than 0.25.

Consider INGM, for which the enrichment ratio was no more than 0.25.

For WYER, the enrichment ratio was no more than 0.25.

On to AVTN, for which the enrichment ratio is 9.32.

As to DEIP, the enrichment ratio is no more than 0.25.

Regarding MHFI, the enrichment ratio is no more than 0.25.

For GQIG, the enrichment ratio came out at 23.8.

In the case of DRMM, the enrichment ratio was no more than 0.25.

With KCAD, the enrichment ratio was no more than 0.25.

As to SNPI, the enrichment ratio worked out at 1.76.

As to AHYG, the enrichment ratio is no more than 0.25.

Regarding YCWH, the enrichment ratio was no more than 0.25.

Regarding EHHN, the enrichment ratio was no more than 0.25.

As for WCMS, the enrichment ratio is no more than 0.25.

With MFAQ, the enrichment ratio was no more than 0.25.

For the variant VNMC, the enrichment ratio stood at 1.44.

As to VWEQ, the enrichment ratio is no more than 0.25.

For LTID, the enrichment ratio was no more than 0.25.

Take RCEA: the enrichment ratio is no more than 0.25.

In the case of CHFI, the enrichment ratio was no more than 0.25.

Regarding KLQA, the enrichment ratio was no more than 0.25.

In the case of IFYY, the enrichment ratio is no more than 0.25.

Consider MFHC, for which the enrichment ratio was no more than 0.25.

Consider EHYA, for which the enrichment ratio is no more than 0.25.

As to SYGR, the enrichment ratio was no more than 0.25.

For the variant LYLS, the enrichment ratio was no more than 0.25.

In the case of SNKA, the enrichment ratio is no more than 0.25.

Turning to QAWN, the enrichment ratio was determined as 7.69.

As for VNMA, the enrichment ratio is no more than 0.25.

Turning to GNPW, the enrichment ratio is no more than 0.25.

As to HGFV, the enrichment ratio was no more than 0.25.

In the case of VQPE, the enrichment ratio is no more than 0.25.

In the case of PRTH, the enrichment ratio is no more than 0.25.

Turning to FNIR, the enrichment ratio was no more than 0.25.

On to MHTV, for which the enrichment ratio was no more than 0.25.

WNCL: the enrichment ratio is no more than 0.25.

On to HEVV, for which the enrichment ratio is no more than 0.25.

Regarding NFCW, the enrichment ratio was no more than 0.25.

On to GRQN, for which the enrichment ratio is no more than 0.25.

For the variant HGYY, the enrichment ratio is no more than 0.25.

For the variant ELNA, the enrichment ratio is no more than 0.25.

FILW: the enrichment ratio was no more than 0.25.

Take PEPV: the enrichment ratio was no more than 0.25.

Regarding DHHC, the enrichment ratio is no more than 0.25.

On to SKKP, for which the enrichment ratio is no more than 0.25.

Take TNLC: the enrichment ratio was 13.5.

For the variant PRWV, the enrichment ratio was no more than 0.25.

Take DQQH: the enrichment ratio is no more than 0.25.

Turning to PMPI, the enrichment ratio was no more than 0.25.

Regarding IEHY, the enrichment ratio is no more than 0.25.

As for WYHN, the enrichment ratio was no more than 0.25.

Consider YEKS, for which the enrichment ratio is no more than 0.25.

Regarding YRSE, the enrichment ratio is no more than 0.25.

WHFQ: the enrichment ratio was 1.98.

As to KREI, the enrichment ratio is no more than 0.25.

As to GPCD, the enrichment ratio was no more than 0.25.

Regarding NWQC, the enrichment ratio is no more than 0.25.

Regarding NITA, the enrichment ratio is no more than 0.25.

For the variant WYTS, the enrichment ratio was no more than 0.25.

On to SALQ, for which the enrichment ratio turned out to be 17.5.

As for HMFS, the enrichment ratio was no more than 0.25.

Regarding FCNR, the enrichment ratio is no more than 0.25.

For GEAR, the enrichment ratio was no more than 0.25.

As to AKPP, the enrichment ratio is no more than 0.25.

INQL: the enrichment ratio was no more than 0.25.

For SKAT, the enrichment ratio was 5.34.

Regarding FVSS, the enrichment ratio was no more than 0.25.

WYFP: the enrichment ratio was no more than 0.25.

As for YSWG, the enrichment ratio is no more than 0.25.

Consider ACKF, for which the enrichment ratio is no more than 0.25.

Regarding IMTA, the enrichment ratio was no more than 0.25.

For the variant VKGW, the enrichment ratio was no more than 0.25.

With PTHV, the enrichment ratio was no more than 0.25.

Take LYEF: the enrichment ratio is no more than 0.25.

Take FMSF: the enrichment ratio was no more than 0.25.

Take WKFA: the enrichment ratio was no more than 0.25.

Take YRMS: the enrichment ratio was no more than 0.25.

As to FMYP, the enrichment ratio is no more than 0.25.

On to YKMQ, for which the enrichment ratio was no more than 0.25.

As for LPER, the enrichment ratio is no more than 0.25.

With FHCT, the enrichment ratio is no more than 0.25.

KYNT: the enrichment ratio is no more than 0.25.

Take RMAE: the enrichment ratio is no more than 0.25.

Take TITS: the enrichment ratio is 15.9.

In the case of MFKS, the enrichment ratio was no more than 0.25.

Consider DYHY, for which the enrichment ratio is no more than 0.25.

As to PPMQ, the enrichment ratio was no more than 0.25.

Turning to HGFP, the enrichment ratio was no more than 0.25.

In the case of ESTC, the enrichment ratio was no more than 0.25.

RKNS: the enrichment ratio was no more than 0.25.

Regarding RHQI, the enrichment ratio was no more than 0.25.

With IGET, the enrichment ratio was no more than 0.25.

For the variant YHPR, the enrichment ratio is no more than 0.25.

For the variant EFWE, the enrichment ratio is no more than 0.25.

Consider KMCD, for which the enrichment ratio was no more than 0.25.

PMGN: the enrichment ratio was no more than 0.25.

Take IVSG: the enrichment ratio is no more than 0.25.

With RHKD, the enrichment ratio is no more than 0.25.
